In all, about 150,000 compounds went through this assay and about 540 (0.36%) showed an effect of 50% or more. Some of the results follow.

The test concerns Plasmodium falciparum. Description: Primary screen in NF54 nanoGlo assay, in single point, at 2uM, 72h; a lower Z score goes with more inhibition. The format is functional, Erythrocyte. The conditions noted are these: timepoint 72 hour.
Usually % Inhibition stands for the relative decrease from the control value, in per cent. For `Cn1ccnc1CN1C[C@@H]2C[C@H]1C(=O)NC[C@H]1O[C@H](CCOc3cc(-c4ccncc4)ccc3C(=O)N2)CC[C@@H]1O`, the “% Inhibition” value is given as -9% and the Z score was 1.36.

As to `Cc1cc(C)n(CC(=O)NC[C@H]2CCCN(C(=O)c3cc4ncccn4n3)C2)n1`, the “% Inhibition” value amounted to 17% and the Z score is given as -2.13.

As for `c1ccc(-c2cn3nc(N4CCOCC4)sc3n2)cc1`, the “% Inhibition” value was -13% and the Z score worked out at 1.88.

Consider `CC[C@H](OC(=O)c1ccc(F)c(NC(C)=O)c1)C(C)(C)c1ccccc1`, for which the “% Inhibition” value is reported as 3% and the Z score was -0.41.

As for `O=C(Cc1cn(Cc2ccc(F)cc2)c2ccccc12)N1CCN(C(=O)c2ccco2)CC1`, the “% Inhibition” value is given as -11% and the Z score is 1.27.

With `O=S1(=O)C[C@H](N2CCCCC2)[C@@H](S(=O)(=O)c2cccs2)C1`, the “% Inhibition” value was 7% and the Z score was -0.81.

Consider `Cc1nc(C)n(CCCn2cc(-c3ccc(CO)o3)nn2)n1`, for which the “% Inhibition” value is recorded as -7% and the Z score is on record as 1.08.

In the case of `O=C(NC1CCN(Cc2ccccc2)CC1)[C@H]1CCc2ncc(-c3ccsc3)n2C1`, the “% Inhibition” value was -5% and the Z score is listed as 1.01.

As to `O=C(NCCc1cncnc1)c1ccc(Oc2ccccc2)cc1`, the “% Inhibition” value is on record as 3% and the Z score is given as -0.38.

`CN(C[C@H]1CCCO1)C(=O)c1c[nH]c(=O)n(C)c1=O`: the “% Inhibition” value came to 26% and the Z score is listed as -2.96.

Regarding `O=C(NC[C@H]1CCCO1)c1ccc(CN2CCN(c3ccccc3F)CC2)o1`, the “% Inhibition” value is reported as -10% and the Z score is given as 1.13.

Regarding `O=C(NCc1ccco1)Nc1cccnc1`, the “% Inhibition” value was -3% and the Z score is on record as 0.62.

For the molecule `O=C(Nc1ccccc1N1CCCC1)N[C@H](CCO)c1ccccc1`, the “% Inhibition” value is 0% and the Z score worked out at 0.03.

Turning to `Cc1cccnc1CN[C@@H](C)c1ccc(F)cc1OC(F)F`, the “% Inhibition” value is on record as -5% and the Z score is listed as 0.46.

Take `CCN(CC)Cc1cnc2c(C(=O)N3CCN(C)[C@@H](C)C3)cnn2c1`: the “% Inhibition” value is -15% and the Z score was 2.78.

For `C#CCN1CCN(C(=O)CNc2ccc(CC(=O)N(C)C)cc2)CC1`, the “% Inhibition” value is recorded as 32% and the Z score is reported as -3.57.

Turning to `Cc1ccc(NC(=O)Cn2nc(N3CCCCCC3)c3ccccc3c2=O)c(Cl)c1`, the “% Inhibition” value is -8% and the Z score is listed as 1.27.

Turning to `Cc1cn(C2CCCCC2)nc1NC(=O)NCc1nnn(C(C)(C)C)n1`, the “% Inhibition” value is on record as -12% and the Z score was found to be 1.56.

With `C[C@H](NS(=O)(=O)CC1CCCCC1)c1ccc(S(C)(=O)=O)cc1`, the “% Inhibition” value came to 0% and the Z score is listed as -0.05.

On to `COc1ccc([C@H](C)NCCC(=O)N(C)C)c(Br)c1`, for which the “% Inhibition” value is -1% and the Z score was determined as 0.13.

As for `O=C(N[C@@H]1CN(C(=O)C2CCC2)CC[C@@H]1CO)c1cccnc1`, the “% Inhibition” value is -8% and the Z score was determined as 1.07.

In the case of `COc1ccccc1CNc1ccc(C(=O)NCCCN2CCCC2=O)cc1S(=O)(=O)Nc1cccc(C(F)(F)F)c1`, the “% Inhibition” value is reported as -6% and the Z score is recorded as 0.73.

For `Brc1ccc(Cc2nc(Cn3ccnn3)no2)cc1`, the “% Inhibition” value is listed as -1% and the Z score was 0.08.

For `COc1ccc2[nH]nc(NC(=O)CC[C@H]3CCC(=O)N3)c2c1`, the “% Inhibition” value is on record as 7% and the Z score is -1.25.

On to `COC(=O)[C@@H](NCc1cccc(C#N)c1)C(C)(C)C`, for which the “% Inhibition” value is listed as 3% and the Z score is reported as -0.44.

`Cc1ncsc1C(=O)N1CCC2(CCCCC2)C1`: the “% Inhibition” value is listed as 37% and the Z score is listed as -5.42.

Take `NC(=O)c1csc(CN2CCc3cc(F)ccc3C2)c1`: the “% Inhibition” value is -1% and the Z score is given as 0.1.

On to `CC(CNC(=O)NCC1CCCO1)N(C)Cc1ccccc1` (configuration not stated), for which the “% Inhibition” value is -5% and the Z score is reported as 0.52.

In the case of `O=C(c1cccs1)N1CCN(Cc2c(-c3ccc(Cl)cc3)nc3ccc(-c4cccc(Cl)c4)cn23)CC1`, the “% Inhibition” value is recorded as -22% and the Z score is 2.39.

As to `CCOC(=O)c1cc(C2CC2)nc2c1c(=O)n(Cc1ccccc1F)c(=O)n2C`, the “% Inhibition” value is given as -1% and the Z score is on record as 0.13.

With `CC(C(=O)NCC(C)(O)c1ccsc1)N1CCc2ccccc21` (configuration not stated), the “% Inhibition” value is listed as -12% and the Z score stood at 1.21.

For `CC(C)c1ccc(NC(=O)c2cc(S(=O)(=O)N3CCCCCC3)cn2C)cc1`, the “% Inhibition” value is on record as -7% and the Z score was found to be 0.95.

`O=C(c1cc(C(F)F)n[nH]1)N1CCc2[nH]nc(C3CC3)c2C1`: the “% Inhibition” value is -1% and the Z score is 0.13.

Take `O=C(Nc1ccc(NC(=O)[C@H]2Nc3ccc(Cl)cc3S(=O)(=O)N2)cc1)c1ccco1`: the “% Inhibition” value was -4% and the Z score is given as 0.69.

Consider `Cc1sc2cc(C(=O)NC(C)(C)C)[nH]c2c1CN1CCOCC1`, for which the “% Inhibition” value was found to be 8% and the Z score is -0.73.

As to `Cn1nc(C(=O)N(CC(F)(F)F)C2CCC2)ccc1=O`, the “% Inhibition” value is listed as -5% and the Z score came to 0.5.

Consider `O=C(O)c1ccc2c(c1)CN(C(=O)C1CCC=CCC1)C2`, for which the “% Inhibition” value is -1% and the Z score came to 0.31.

Regarding `COC1CCCN(C(=O)CC2(c3ccccc3)CC(=O)N(CC3CCCCC3)C2=O)C1` (configuration not stated), the “% Inhibition” value is -17% and the Z score is reported as 2.29.

Turning to `Cc1[nH]nc(CN(C)[C@@H](C)CC(N)=O)c1Cl`, the “% Inhibition” value was -12% and the Z score worked out at 1.61.

With `COc1ccccc1C1CC1C(=O)N1CCCCCCC1` (configuration not stated), the “% Inhibition” value was -4% and the Z score came out at 0.8.

For the molecule `O=C(c1cc(-c2ccc(Cl)s2)nc2ccccc12)N1CCN(c2cccc(Cl)c2)CC1`, the “% Inhibition” value is listed as -26% and the Z score was 3.1.

Values taken from ChEMBL document CHEMBL4888484, “Replenishing the malaria drug discovery pipeline: Screening and hit evaluation of the MMV Hit Generation Library 1 (HGL1) against asexual blood stage Plasmodium falciparum ,using a nano luciferase reporter read-out” (2022).
